Some of the results follow.
B1: PhoQ; a variant is named by its letters at X, in order, P23837 (parent)
chain: MKKLLRLFFPLSLRVRFLLATAAVVLVLSLAYGMVALIGYSVSFDKTTFRLLRGESNLFYTLAKWENNKLHVELPENIDKQSPTMTLIYDENGQLLWAQRDVPWLMKMIQPDWLKSNGFHEIEADVNDTSLLLSGDHSIQQQLQEVREDDDDAEMTHSVAVNVYPATSRMPKLTIVVVDTIPVELKSSYMVWSWFIYVLSANLLLVIPLLWVAAWWSLRPIEALAKEVRELEEHNRELLNPATTRELTSLVRNLNRLLKSERERYDKYRTTLTDLTHSLKTPLXXLQXXLRSLRSEKMSVSDAEPVMLEQISRISQQIGYYLHRASMRGGTLLSRELHPVAPLLDNLTSALNKVYQRKGVNISLDISPEISFVGEQNDFVEVMGNVLDNACKYCLEFVEISARQTDEHLYIVVEDDGPGIPLSKREVIFDRGQRVDTLRPGQGVGLAVAREITEQYEGKIVAGESMLGGARMEVIFGRQHSAPKDE

Variants of: B1
Assay: enrichment ratio after two sorts for PhoP signalling (ratio (wild type AVST 3.29)); higher = more functional
Conditions: with PhoP (E. coli)

NQSH and HYYL cannot be ordered by enrichment ratio: no more than 0.25 for the first, no more than 0.25 for the second.

SFAH and KSDT cannot be ordered by enrichment ratio: no more than 0.25 for the first, no more than 0.25 for the second.

YKFF and YEAG cannot be ordered by enrichment ratio: no more than 0.25 for the first, no more than 0.25 for the second.

AWTA and FTVF cannot be ordered by enrichment ratio: no more than 0.25 for the first, no more than 0.25 for the second.

Going from TTCR to SDMQ, the enrichment ratio falls from 7.57 to 0.349.

SNKN and HTMV cannot be ordered by enrichment ratio: no more than 0.25 for the first, no more than 0.25 for the second.

IPMM and DPDR cannot be ordered by enrichment ratio: no more than 0.25 for the first, no more than 0.25 for the second.

First: TDAV
Second: PRTW
The enrichment ratio of the first is higher: 11.6 for the first, no more than 0.25 for the second.

ITKP and DHVC cannot be ordered by enrichment ratio: no more than 0.25 for the first, no more than 0.25 for the second.

MHVS and KVNY cannot be ordered by enrichment ratio: no more than 0.25 for the first, no more than 0.25 for the second.

EQIQ and GPWF cannot be ordered by enrichment ratio: no more than 0.25 for the first, no more than 0.25 for the second.

VGVF and LNLQ cannot be ordered by enrichment ratio: no more than 0.25 for the first, no more than 0.25 for the second.

RGQL and WAFD cannot be ordered by enrichment ratio: no more than 0.25 for the first, no more than 0.25 for the second.

RKLA and GYKT cannot be ordered by enrichment ratio: no more than 0.25 for the first, no more than 0.25 for the second.

GDYT and MSQK cannot be ordered by enrichment ratio: no more than 0.25 for the first, no more than 0.25 for the second.

First: GTSQ
Second: EGMH
The enrichment ratio of the first is higher: 5.69 for the first, no more than 0.25 for the second.

Going from PCFW to AKTI, the enrichment ratio rises from no more than 0.25 to 23.6.

PCYL and KAYF cannot be ordered by enrichment ratio: no more than 0.25 for the first, no more than 0.25 for the second.

VLFH and FMCK cannot be ordered by enrichment ratio: no more than 0.25 for the first, no more than 0.25 for the second.

Compared with VNCT, FELT is higher in enrichment ratio: 1.24 for the first, 6.15 for the second.

AACQ and PSGD cannot be ordered by enrichment ratio: no more than 0.25 for the first, no more than 0.25 for the second.

AYHP and MMPS cannot be ordered by enrichment ratio: no more than 0.25 for the first, no more than 0.25 for the second.

MADL and DQYR cannot be ordered by enrichment ratio: no more than 0.25 for the first, no more than 0.25 for the second.

PMDG and KKCP cannot be ordered by enrichment ratio: no more than 0.25 for the first, no more than 0.25 for the second.

MVGG and ECEF cannot be ordered by enrichment ratio: no more than 0.25 for the first, no more than 0.25 for the second.

TYWR and KEHA cannot be ordered by enrichment ratio: no more than 0.25 for the first, no more than 0.25 for the second.

WYLF and MYCA cannot be ordered by enrichment ratio: no more than 0.25 for the first, no more than 0.25 for the second.

VTWS and DKEH cannot be ordered by enrichment ratio: no more than 0.25 for the first, no more than 0.25 for the second.

PQYV and DMYH cannot be ordered by enrichment ratio: no more than 0.25 for the first, no more than 0.25 for the second.

YDNF and FKST cannot be ordered by enrichment ratio: no more than 0.25 for the first, no more than 0.25 for the second.

AFQP and QYGC cannot be ordered by enrichment ratio: no more than 0.25 for the first, no more than 0.25 for the second.

ITGG and LATA cannot be ordered by enrichment ratio: no more than 0.25 for the first, no more than 0.25 for the second.

PVCT and MMRA cannot be ordered by enrichment ratio: no more than 0.25 for the first, no more than 0.25 for the second.

HQEC and LSYP cannot be ordered by enrichment ratio: no more than 0.25 for the first, no more than 0.25 for the second.

TYQN and EAGV cannot be ordered by enrichment ratio: no more than 0.25 for the first, no more than 0.25 for the second.

DWFC and DRGV cannot be ordered by enrichment ratio: no more than 0.25 for the first, no more than 0.25 for the second.

Compared with LRPW, MLTL is higher in enrichment ratio: no more than 0.25 for the first, 8.8 for the second.

HLAP and FSHI cannot be ordered by enrichment ratio: no more than 0.25 for the first, no more than 0.25 for the second.

DVVK and RVCA cannot be ordered by enrichment ratio: no more than 0.25 for the first, no more than 0.25 for the second.

MTIK and MMDP cannot be ordered by enrichment ratio: no more than 0.25 for the first, no more than 0.25 for the second.

VWFL and TSKM cannot be ordered by enrichment ratio: no more than 0.25 for the first, no more than 0.25 for the second.

Going from TEWC to EQKT, the enrichment ratio falls from 33.2 to no more than 0.25.

PFPS and VRFL cannot be ordered by enrichment ratio: no more than 0.25 for the first, no more than 0.25 for the second.

Compared with MIAC, ESGP is lower in enrichment ratio: 1.86 for the first, no more than 0.25 for the second.

VWGD and RQVI cannot be ordered by enrichment ratio: no more than 0.25 for the first, no more than 0.25 for the second.

MLIE and DCVR cannot be ordered by enrichment ratio: no more than 0.25 for the first, no more than 0.25 for the second.

FLMA and NFPC cannot be ordered by enrichment ratio: no more than 0.25 for the first, no more than 0.25 for the second.

NWTY and FCPM cannot be ordered by enrichment ratio: no more than 0.25 for the first, no more than 0.25 for the second.

KEEF and PDWQ cannot be ordered by enrichment ratio: no more than 0.25 for the first, no more than 0.25 for the second.

MCGP and YRVW cannot be ordered by enrichment ratio: no more than 0.25 for the first, no more than 0.25 for the second.

MNVP and DIDH cannot be ordered by enrichment ratio: no more than 0.25 for the first, no more than 0.25 for the second.

WIHK and YDNY cannot be ordered by enrichment ratio: no more than 0.25 for the first, no more than 0.25 for the second.

KSLF and TLDQ cannot be ordered by enrichment ratio: no more than 0.25 for the first, no more than 0.25 for the second.

Going from RFGQ to ARSC, the enrichment ratio falls from 0.782 to no more than 0.25.

Going from TFAH to GSKI, the enrichment ratio falls from 1.37 to no more than 0.25.

WGAD and GKPG cannot be ordered by enrichment ratio: no more than 0.25 for the first, no more than 0.25 for the second.

HMSW and IYGE cannot be ordered by enrichment ratio: no more than 0.25 for the first, no more than 0.25 for the second.

PIFV and YCKI cannot be ordered by enrichment ratio: no more than 0.25 for the first, no more than 0.25 for the second.

NTTR and VEDN cannot be ordered by enrichment ratio: no more than 0.25 for the first, no more than 0.25 for the second.

LWGQ and RLWA cannot be ordered by enrichment ratio: no more than 0.25 for the first, no more than 0.25 for the second.

YNSG and RLGG cannot be ordered by enrichment ratio: no more than 0.25 for the first, no more than 0.25 for the second.

KGIG and EDRL cannot be ordered by enrichment ratio: no more than 0.25 for the first, no more than 0.25 for the second.

NTER and NCGK cannot be ordered by enrichment ratio: no more than 0.25 for the first, no more than 0.25 for the second.

Compared with FDEK, TVQR is higher in enrichment ratio: no more than 0.25 for the first, 9.01 for the second.

DNLK and KMAS cannot be ordered by enrichment ratio: no more than 0.25 for the first, no more than 0.25 for the second.

GKIE and NVLH cannot be ordered by enrichment ratio: no more than 0.25 for the first, no more than 0.25 for the second.

Going from ESSD to LTWF, the enrichment ratio rises from no more than 0.25 to 0.951.

NKPM and HHEV cannot be ordered by enrichment ratio: no more than 0.25 for the first, no more than 0.25 for the second.

FSVT and SYWY cannot be ordered by enrichment ratio: no more than 0.25 for the first, no more than 0.25 for the second.

Compared with LATQ, PLCY is higher in enrichment ratio: no more than 0.25 for the first, 0.345 for the second.

VHDH and ECRY cannot be ordered by enrichment ratio: no more than 0.25 for the first, no more than 0.25 for the second.

RYHY and YLVD cannot be ordered by enrichment ratio: no more than 0.25 for the first, no more than 0.25 for the second.

DWMC and ERIP cannot be ordered by enrichment ratio: no more than 0.25 for the first, no more than 0.25 for the second.

YMTM and NRYC cannot be ordered by enrichment ratio: no more than 0.25 for the first, no more than 0.25 for the second.

VDGL and LQGH cannot be ordered by enrichment ratio: no more than 0.25 for the first, no more than 0.25 for the second.

Going from PFRR to GIMI, the enrichment ratio rises from 0.315 to 25.7.

KGRF and WEPQ cannot be ordered by enrichment ratio: no more than 0.25 for the first, no more than 0.25 for the second.

MAVM and PCRM cannot be ordered by enrichment ratio: no more than 0.25 for the first, no more than 0.25 for the second.

QIWC and LYVT cannot be ordered by enrichment ratio: no more than 0.25 for the first, no more than 0.25 for the second.

Compared with RFIC, ALSG is higher in enrichment ratio: no more than 0.25 for the first, 9.24 for the second.

ATNR and NDHY cannot be ordered by enrichment ratio: no more than 0.25 for the first, no more than 0.25 for the second.

PIPL and YQSD cannot be ordered by enrichment ratio: no more than 0.25 for the first, no more than 0.25 for the second.

VNYQ and YRYQ cannot be ordered by enrichment ratio: no more than 0.25 for the first, no more than 0.25 for the second.

Compared with GNSH, MTQK is lower in enrichment ratio: 1.23 for the first, no more than 0.25 for the second.

FYAN and GLEK cannot be ordered by enrichment ratio: no more than 0.25 for the first, no more than 0.25 for the second.

GWKL and MCWW cannot be ordered by enrichment ratio: no more than 0.25 for the first, no more than 0.25 for the second.

Compared with GFVF, HDGR is lower in enrichment ratio: 0.32 for the first, no more than 0.25 for the second.

VHWC and RLDT cannot be ordered by enrichment ratio: no more than 0.25 for the first, no more than 0.25 for the second.

NYKG and RCPQ cannot be ordered by enrichment ratio: no more than 0.25 for the first, no more than 0.25 for the second.

ANTP and AKRC cannot be ordered by enrichment ratio: no more than 0.25 for the first, no more than 0.25 for the second.

KSME and MPMM cannot be ordered by enrichment ratio: no more than 0.25 for the first, no more than 0.25 for the second.

MPLC and MVIL cannot be ordered by enrichment ratio: no more than 0.25 for the first, no more than 0.25 for the second.

Going from SNIV to PHHP, the enrichment ratio falls from 9.73 to no more than 0.25.

GPVP and DDNF cannot be ordered by enrichment ratio: no more than 0.25 for the first, no more than 0.25 for the second.

WCGW and NQCN cannot be ordered by enrichment ratio: no more than 0.25 for the first, no more than 0.25 for the second.

SIWG and VMPV cannot be ordered by enrichment ratio: no more than 0.25 for the first, no more than 0.25 for the second.

FFSH and MTMT cannot be ordered by enrichment ratio: no more than 0.25 for the first, no more than 0.25 for the second.

For GPHY, the enrichment ratio was no more than 0.25.
